# Assay results published in the supplement of paper PMC10681739.
# ± gives the standard deviation of the averaged measurements. Whole data set: some 4,000 sequences, median “arbitrary fluorescence units” near 830, cut for the highest 2% near 6,500. This part holds few or none of the hits.
# Biological target: RUNX1 (UniProt Q01196)
# Assay: RUNX1 binding intensity (PBM fluorescence), RUNX1 alone (arbitrary fluorescence units); higher = stronger binding
# Conditions: RUNX1 concentration 2 nM; ETS1 concentration 0 nM
# Experimental: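 gcPBM on 36-bp genomic-derived probes (partner site mutated) containing one RUNX1 site and no ETS1 site. Recombinant human RUNX1 (2 nM) was incubated alone or with ETS1 (25 nM) and detected by anti-RUNX1 antibody fluorescence. Values are medians over 4 replicate spots (not normalised). The probes sit in constant array flanks that are not printed.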
# 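Also: Full-length recombinant human RUNX1 bound to double-stranded DNA microarray spots, detected with an Alexa488-labelled secondary antibody after the anti-RUNX1 primary, read as scanned spot fluorescence.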
# Sequence of UniProt Q01196 (Q01196 whole entry): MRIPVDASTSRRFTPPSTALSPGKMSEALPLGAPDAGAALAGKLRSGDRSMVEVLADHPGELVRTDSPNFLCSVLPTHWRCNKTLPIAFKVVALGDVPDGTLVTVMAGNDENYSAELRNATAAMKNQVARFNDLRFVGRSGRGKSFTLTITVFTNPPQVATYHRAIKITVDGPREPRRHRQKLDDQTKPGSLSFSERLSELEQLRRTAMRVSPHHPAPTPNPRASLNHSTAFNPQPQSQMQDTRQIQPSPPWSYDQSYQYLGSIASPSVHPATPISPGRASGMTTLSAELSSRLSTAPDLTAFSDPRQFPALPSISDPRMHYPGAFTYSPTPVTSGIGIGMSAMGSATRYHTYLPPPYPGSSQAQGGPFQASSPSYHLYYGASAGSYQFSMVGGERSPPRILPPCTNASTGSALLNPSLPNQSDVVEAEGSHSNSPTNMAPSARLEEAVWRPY
row,Sequence,RUNX1 binding intensity
1,GCCAGGGCTGCGGCGGGAGAGGAGGCCGGGCGGCCG,760
2,GGAGGAAGAGAGGAATCGGGGGCGGCCGCAGCTTCT,741
3,GGCAGCGGTTTTCGCTGTCGGCACTGAAGGGAAGCA,813
4,TCAAAAACCTTACCACTTCAGCCGGCAACTACAGGA,893
5,TTGCATGCTGGGATTTGTAGTCCTGGCCGCAGTGCT,645
6,GAATAACCACAACAACCGATGCACCTCCGTGTTTAA,3610
7,GCGTCGGCCACAAGGCGTTTTACGTTCAGCCCCCTG,789
8,ATGTTAACACCCTGCCATGAAAACCGCAAGAAGGGC,11200
9,GGGCCCCGCAGCCCGACCGCCTGACCGAAAGTGCAG,815
10,CATGTGGTCAACTCGATTTGTCACAGCAAGTACCCA,830
11,AGACCCGAAAGAACTTGTCCCAGTGTTGACCACACC,829
12,GGCTGATCAGATCCCTGCTGCGGGCTTAAATAGAGT,739
13,AGCTGCCAACCGCAGCGCTACTCCCGGCCGCCTCCG,3850
14,TGCCTGTGGTCTTTTGAGAGGTGGGGAGGTGGGCGA,947
15,GCTTACACTGCCTCCCTGAACCCCTGCGGTTTCACA,3440
16,ACACCGCTCATGAAGACAAAGCCACACCTCACACCG,972
17,GCATGAAGACAAAGGGCATGGTTTGTGTGGTGCCCC,707
18,CAACAACCGAAAGTGGGGCGGGCCGCAGTACCCGCC,720
19,AGCTGCATTTACGGGCAGGCAATGAAACCACAGAGT,934
20,AGGTGTGGGTGACTCAGAGCGGGCTGATGAGAACAG,780
21,ACCAGAGAAGGAACTACACAGTAAACCCACTGCCTC,914
22,CCCGGAGGACGTTCGGCCTCTGTGAGCCGCAACCTT,758
23,CATCTCTCTGTGGCTTCCCTGTGACTTTCGCAGGTG,1130
24,TCCCGCCTACCGCGAAAAACGCGCAAATACGGTGGC,914
25,GGTCGCTGTGGTGACGGGGGAGGCAATTCTGTCCGT,788

row,Sequence,RUNX1 binding intensity
1,GAGGTCCTGGTGGTTTCATTTCAGGGTGCAGCTTCT,796
2,TTGAGCCTAACCACTGCACGAGCACAGGGTGTGGGA,748
3,CCCAGAGATGCGGTGCATGTGGCAGCATGGCCCAGC,1380
4,GGCAGGAGCAGCCGCAAACTAGGCCCGAAAACTGTC,921
5,GCGAGAGGGATGAATTGACTCACCAACCACAACAAA,929
6,TGGCGCTTTCTGTCGCTACCGCTGCGGCCCAGGGCC,782
7,GCAGTCCTGAGGTGGGTATTTATTTGCTGCTGTTCT,830
8,CTTCAAAGTCAGGCAACCGTTAAACCACACTGCATC,1100 ± 59
9,GATAAGCGGTTTCTAATGAGCTCACTGGTTGCCGAT,777
10,GTTTACAAAACCAAGCCCTTGACGTCTTCATGGACC,824
11,GTTTTGTGGCCTAAAGAAACATATGGTCAGGCTGAT,815
12,CCCCGTACGGGGAGGAGCGAGGCCCGCGGTTGTCCC,726
13,CCTCTGTGGTTTTTAAGAGTAACACACAGAAAGGAC,3270
14,CTCCCCTGAACACGCGAGTCTCCTGTCGCGGTTCCA,961
15,TCCTGTGGCTTAGCTGGGAGAACACGATGACAGCAA,903
16,CCAACGCTCCCCGCAGCGCGTTACGGAGCCGGTCCT,878 ± 15
17,GGGTTCTCCGCGCGCCAGCTGAGGTGGTTGCTGGGA,730
18,TGTAAGTCAATTCCTGTCGTGGTCAGGTCTCCTCTC,827
19,CTGTCCAGCCCACAGAGGCCCCTGAAAGCCAGTGCC,865
20,AGCACCCGGGAGTCGGAGCTGCGCACGCACCGCGGG,709
21,ACTCAGCCCACAAAGCTAACAGCAGCAAGTGCTTGG,828
22,TCTCTTTACCGCGAGGAAAGCTGGGCAATGTAGTGC,953
23,TCAAAGACTCAGCGGTTACCCCCTTCAGGGCCGCGC,816
24,TGTTTGTTGCCGAAGATTAGCCAGCCTGCGGTAGAG,833
25,TACCAAAAAGCTACCACAGAACGGAGGAGAACACGA,875

row,Sequence,RUNX1 binding intensity
1,TCCCACTGCGACCGAAGCACAGCGGTTAAGATTGCA,725
2,TCCTCTCCTTGCCGCGAGACCTTGCGCGGTTATCCA,1010
3,TCGCAGATACCACACCCACCCGAAAGTCCTCCTGGC,1050
4,GTTGTCTTCTTTCTGAGTAAACCGCAGTGCAGAGAA,4560
5,GGGAGGCCCCATCGTGTGTGGCTGTGGCTTTTGCCT,762
6,GCAGGACTGCCTGTGTTGTGCTAACCTCAAATTACA,808
7,TGAGAAAACAGAAAGCGCCCAGTCACCACAGAAAGC,753
8,GCCTTGCGGCGAGGCGGGCCGGAGCGACGAAAAGCT,884
9,GGCCAAGGAGGCGGCCCCCTAAAACCGCTCCCGGGA,665.9 ± 5.3
10,CGGCAGCTGCACCGCAGGGACATCTTCGGCCAGAGC,870
11,TCTACACCCTGCAGTTCTCCATTGTGGCCATTAGGT,922
12,TTAGAGTCTGTGGGGCTCTTAGCTGGGAATTGATAC,750
13,GGCACACTGCGGTCGCACCATAAGCTTGCTGGATGG,1690
14,TCTTTGCTGGTGGTTACCTTTACAGGCAATCTCTTA,827
15,CGTGGCCCGAAAGCTCTCAGCGGCGAGCACCGCGGG,675
16,CCTGGTCCGGGAGCGCTGTCCCCGCCTCCCGCATAG,912
17,GCGGACCACGAGCCTCCTGGGTGCCGTACGCAGATG,801
18,GGGGACCTGAAAGGGAGGGGTGGGCCGCAGGCGCCG,779
19,TGTGACCACAGCTGGGGGCGGGGCAGCAAGTAGAAG,938
20,GCTTCTTACGGCCGGGCCGAGAGGTGGTTACATTCG,750
21,CCGTGGTTGCAAGAAACACCCACCATTCCCGGGTCT,775
22,CGGGACCTGATTCCTTGGGAACCACAAGATAAGACC,794 ± 8.7
23,GTCACAGAGGGAGCAAGGCCGAACCGCGGGAGCCTA,770
24,CCACACCTAACCACAGGGGAGGTTGGGAATTGAAGT,1550
25,TTGTGGCTAATGGCTCAGCAGGATTAGGCAGCAACT,713

row,Sequence,RUNX1 binding intensity
1,CAAGGTGCTGTGGTCACATAAGCAGCAAGAGCCCCA,907
2,GGCCGCCGATTCCCGTCCAGGGCCGCAGTCTGCCCG,866
3,AAATGTAGCCCGGGACCAAGTGTGCGGTGACGACTC,697
4,TGACCTCCTCCTCTTCACTAACAGAAACCTCAATTT,1370
5,GCAGGTTTTGTGGGCCGCTTCCACAGTAAAACATGC,783
6,TCGGGCTGCCGCAGAGCAGCTATTGCCTGTCTGCAC,686
7,TGCCTGAAGCCCGCCAGGCACAGGACCCGCAGGGGT,676
8,GGGGACGCCCCTCCGCGCTGCGGCGGTGGTCGGGAG,609
9,TTGAATTTACCACGCGGAAAGCAGCTTTTCATGTGC,698
10,CCCTAGCCGCAGCCCAAGATCCTCCCACGGGGAGTG,1630
11,TCCAGCTGAAGGGGGCATCTTTGCGGCAGAGGCAGC,755
12,GCCCTTGCTCCCGGCGCGCAGGGTGTGGTCCCCGAG,747
13,TGCTGATTCCTCTGCTGCCGAAGCGGTTTCTTCCAC,1020
14,ACTGCTCAACCACACACAAGAACAGCAGCATGAGGT,1050
15,GGTGTGACAACCACAAACAGCTCCCTGCCAGAGTCC,1410
16,TTGCTCCCGTAAGCCCCGCCCGACCGCGGCTCCTGA,1020
17,CCCGCCGTAAGGACGCGTCTGCGTCTCTGCGGCGAG,654
18,AGGCCTCGCCTCCTCTCCTGACCACACCCTGCAGCT,1130
19,GTTTATGGCAGCAAAGCCTGATAACCCACAAACCCT,852
20,AAGGAACTGTGGTAAGAGAAGGCAGTGGTAGCCACT,904
21,GGCCAGGCAGCAAGTCCCGCGCCACAAGCGGCCGTC,725
22,CTGGAGCCCACAACAACTCCGGGCCGAAGCAGCAGG,801
23,TCCCACACCCTGTGCTCGTGCAGTGGTTAGGCTCAA,660
24,GGGTGCAGCTGGAAGGTTGAGGTCAGATCCTCCCAG,752
25,CGGTGTGAGGTGTGGCTTTGTCTTCATGAGTGGTGT,897

row,Sequence,RUNX1 binding intensity
1,ACAGATCCAAGAAAGCATATCCCGCAAGCAACTGTT,800
2,GGGCTTCAGCGAATGAACAAGGTTACCACGGGGAGT,759
3,GAGGACTTTCGGGTGGGTGTGATATCTGCGGGCCCG,764
4,TCCCCTGTCTTACGGAGGCTGCGGCGCAGCGGCGCA,751
5,TGCTGTGGGGACAGCCCAGGTGCATGAAGGGGCCAG,686
6,GGACGAGGCAGCCCCTGTATCACCCCACAAGAAGCC,871
7,GAGCGCGGCACTCGCCACGGTAAGGATTACCACAGG,742
8,AATATAGTGGTTCAAAACAAGAGGCAGTGTGGCAAG,817
9,AACAGCAAGTGGTCTTAGAGATCATGCGGTTCAGAG,790
10,CCCGTGCACCGCAGCCTTACGGGGACGTGCTCAGGG,987
11,GATTAAGAGGAGGTGTGTGTGATTATTACCGCTGGA,805
12,GAGGGACACGATGCCGCCAGGAACCACAAGAGCTTC,750 ± 38
13,CTGGCCCCTTCATGCACCTGGGCTGTCCCCACAGCA,924
14,CAGTGTTCCGCGTACGGGGGTTTGTGGGAGTTGCCT,872
15,CCTACAATTCCCAGAGAACCTAGCGGTTACGCCAAC,1220
16,TGCGTCCATTCGGGGCTTCTGGCCGCAAGGCGCCAG,743
17,GGGCTTACGGCTGAACCCATGGCTGCGGGCTGTGCT,704
18,GTCTCTTGGTGGTTGATAAGCTAAACGGAGGTGAGT,1020
19,GGATGACACCCGGCACCAACTTAACCACTAATCTCA,1090
20,AGTGCTGTGGGCGAGACTGCACAGCAAATAAAAAGA,801
21,TCCTGCGGCTGAGTGGCAGCTTCCATTCGGTGGGTT,883
22,TCTCGTCCAGTCCTTGCTCCCCCTCCCCGCAGCGCT,1330
23,CGGCGGCTGCGGGCTGAGCGGCGAGTTGCCGATTTA,802
24,CTTTTTTGTGGCTTACCAGAACCAATATTCGGCATT,1450
25,GTGGGGGGCGGGTGGTTGGGGCGTCAGGTTCGCCGC,830
